From ChEMBL document CHEMBL5308541, “MAIP: An Open-Source Tool to Enrich High-Throughput Screening Output and Identify Novel, Druglike Molecules with Antimalarial Activity” (ACS Med Chem Lett, 2023) come the findings set out here.

Screen size: about 150,000 compounds; about 540 (0.36%) showed an effect of 50% or more. This is one part of the list.

The term % Inhibition denotes the drop in the measured response relative to a control, in per cent.

The test system of this test is Plasmodium falciparum. Description: Primary screen in NF54 nanoGlo assay, in single point, at 2uM, 72h; a lower Z score goes with more inhibition. The format is functional, Erythrocyte. The conditions noted are these: timepoint 72 hour.
Consider `c1ccc2c(c1)CCN2c1cc(N[C@H]2CCOC3(CCCC3)C2)ncn1`, for which the “% Inhibition” value came to 1% and the Z score is given as -0.16.

Regarding `C[C@H]1c2sccc2CCN1C(=O)C1CC(N(C)C(=O)OC(C)(C)C)C1` (some centres undefined), the “% Inhibition” value is on record as -14% and the Z score is reported as 2.44.

As to `CN(C)C1(CNCc2cnc(NCc3ccccc3)nc2)CCCCC1`, the “% Inhibition” value was determined as 8% and the Z score is recorded as -1.79.

`CC(NC(=O)C(C)C1CN(C(=O)OC(C)(C)C)C1)c1cc(F)ccc1N1CCN(C)CC1` (centres undefined): the “% Inhibition” value is recorded as -7% and the Z score is listed as 1.13.

Take `Fc1ccc2c(C3CCN(CC4=CCCOC4)CC3)c[nH]c2c1`: the “% Inhibition” value was 4% and the Z score is listed as -0.68.

Consider `O=C(c1cccc(Nc2cnccn2)c1)N1CCN[C@H](c2ccccc2Cl)C1`, for which the “% Inhibition” value is -6% and the Z score was 0.84.

For `CC1(C)CC(NC2CCOCC2OCC2CC2)CC(C)(C)N1` (centres undefined), the “% Inhibition” value is -3% and the Z score came to 0.51.

Turning to `Cc1ccc2ncc(C(=O)N(C)Cc3nc4ccccc4s3)c(O)c2c1`, the “% Inhibition” value is -3% and the Z score is on record as 0.51.

For `Cc1c2c(=O)n(-c3ccc(F)cc3)[nH]c2cc(=O)n1CCc1c[nH]c2ccc(Cl)cc12`, the “% Inhibition” value is on record as -1% and the Z score was 0.2.

As for `C[C@H]1CNCCN1C(=O)c1ccc(-c2cnn(Cc3ccccc3)c2)cc1`, the “% Inhibition” value turned out to be 6% and the Z score was -1.29.

With `Cn1cc(CNCCNc2ncccn2)c(-c2ccncc2)n1`, the “% Inhibition” value was -14% and the Z score is 2.45.

In the case of `Cn1ncnc1-c1cccc(Nc2cccc(N3CC[C@H](Oc4cnccc4C#N)C3)n2)c1`, the “% Inhibition” value came to 5% and the Z score is on record as -1.05.

As to `Cc1cnn(CC2CCN(C(=O)[C@H]3CCCN(CC(N)=O)C3)CC2)c1`, the “% Inhibition” value is reported as -10% and the Z score was determined as 1.73.

On to `CC(C)N1CCN(CCCN2CCN(C)C3(CCCCC3)C2)CC1`, for which the “% Inhibition” value is 3% and the Z score is recorded as -0.69.

As for `c1ccc(Cn2ccnc2[C@H]2CCCN(c3ncnc4[nH]ccc34)C2)nc1`, the “% Inhibition” value came to 4% and the Z score is listed as -0.79.

For the compound `CCc1ccc(Br)cc1C(=O)N[C@@H](CO)C(N)=O`, the “% Inhibition” value is recorded as 1% and the Z score was -0.29.

`Cc1nc2ccc(C(=O)N(C)Cc3cc(C4CC4)on3)cc2o1`: the “% Inhibition” value is recorded as -9% and the Z score is 1.56.

Consider `Cc1nn(CC(F)(F)F)cc1C(=O)N(C)[C@@H](C)CO`, for which the “% Inhibition” value is on record as -6% and the Z score is given as 0.97.

As for `O=C(NC1CCN(Cc2ccc(Cl)cc2)CC1)[C@@H]1CCCN1C1CCCC1`, the “% Inhibition” value is given as -2% and the Z score is recorded as 0.43.

With `Cc1ccnc([C@H]2CCN(CC(=O)N(CCC#N)CCC#N)C2)c1`, the “% Inhibition” value is on record as -2% and the Z score was found to be 0.32.

Consider `COc1cccc(Nc2ccccc2C(=O)N(C)[C@H]2CCNC2)c1`, for which the “% Inhibition” value is recorded as -10% and the Z score was 1.92.

As to `CN([C@@H](c1ccccc1)c1ccccc1Br)S(=O)(=O)c1c[nH]c2ncccc12`, the “% Inhibition” value amounted to 60% and the Z score was -11.93.

As to `N#Cc1ccc(N2CCC[C@H](N3CCN(c4ccc(F)cc4)CC3)C2)nc1`, the “% Inhibition” value is listed as 7% and the Z score is -1.61.

Regarding `CN1C(C)(C)CC(NC(=O)c2cc(-c3cccc(C(F)(F)F)c3)on2)CC1(C)C`, the “% Inhibition” value was 11% and the Z score was -2.02.

On to `c1cc(N2CCCN(c3ccnc(-c4nccs4)n3)CC2)ccn1`, for which the “% Inhibition” value is recorded as -4% and the Z score is 0.78.

On to `CN(Cc1nc(-c2ccncc2)no1)c1nccc(N2CCC(O)CC2)n1`, for which the “% Inhibition” value is 0% and the Z score is listed as 0.03.

With `CCc1ccc(-c2ccc(Nc3ccc(C(N)=O)cc3)nn2)cc1S(N)(=O)=O`, the “% Inhibition” value is on record as -9% and the Z score was 1.53.

With `O=C(CCN1CCCCCCC1)NCc1noc(-c2c(F)cccc2F)n1`, the “% Inhibition” value is reported as 5% and the Z score is listed as -1.14.

Turning to `COc1ccc(CNCc2cc3ccccc3[nH]2)cc1CN(C)C`, the “% Inhibition” value came out at 41% and the Z score was -7.29.

Regarding `OCC1CCCN1c1cc(N2CCOC(c3cc(F)c(Cl)cc3Cl)C2)ncn1` (centres undefined), the “% Inhibition” value was 14% and the Z score is listed as -2.91.

For the compound `C[C@@H](CNc1ncnc2[nH]ccc12)CN1CCCCC1`, the “% Inhibition” value was -15% and the Z score is 2.21.

As for `COc1ccc(N2CCN(CCCN[C@@H](C)CS(=O)(=O)c3ccccc3)CC2)cc1`, the “% Inhibition” value is reported as -4% and the Z score is listed as 0.91.

Take `COc1ccnc(NC[C@@H]2C[C@H](F)CN2Cc2cncnc2)n1`: the “% Inhibition” value is -7% and the Z score was determined as 1.48.

For the compound `COCCN1CCC(CN(C)c2ncnc3cc[nH]c23)CC1`, the “% Inhibition” value worked out at 14% and the Z score is listed as -2.08.

`c1ccc(-c2nnc(NCc3ccnc(OC4CCC4)c3)s2)nc1`: the “% Inhibition” value was -6% and the Z score is recorded as 1.28.

Regarding `Cc1cc(C(=O)NC2CCN(c3ncnc4[nH]ccc34)CC2O)no1` (centres undefined), the “% Inhibition” value was determined as 1% and the Z score was -0.23.

As for `Cc1nn(C)cc1CN(C)c1cncc(C(=O)N2CCCC2)n1`, the “% Inhibition” value is -7% and the Z score was 1.17.

For `c1ccc2ncc(CN3CCC(N4CCCCC4)CC3)cc2c1`, the “% Inhibition” value worked out at 5% and the Z score was -0.87.

With `CCc1ccc(NC(=O)N2CCC[C@H](c3cccc(C(=O)NCCN4CCN(C)CC4)c3)C2)cc1`, the “% Inhibition” value is reported as -7% and the Z score is given as 1.23.

Turning to `O=C([C@@H]1CC2(CCNCC2)CN1)N1CCC(n2c(=O)[nH]c3ccccc32)CC1`, the “% Inhibition” value is listed as -9% and the Z score amounted to 1.56.

Consider `Fc1cccc2c(NCc3ccccc3OCCN3CCOCC3)ncnc12`, for which the “% Inhibition” value stood at 10% and the Z score was -1.83.

`Cn1cc(CNC(=O)CN2CCNCC2=O)c(C(F)(F)F)n1`: the “% Inhibition” value is -8% and the Z score was 1.24.
